The numbers were not newly measured in patent publication US7439350B2, “Nucleotide analogs” (Gilead Sciences, Inc., priority 1993, dated 2008), which cites them from elsewhere.

The conditions of this series: Balzarini et al, Animal Models in AIDS (1990); cited from earlier work.

With `Nc1ncnc2c1ncn2CCOCP(=O)(O)O` [PMEA, 9-(2-phosphonylmethoxyethyl)adenine], the oral bioavailability is recorded as 2-4%.
